These are yes or no findings as the source states them, for the method shown. Binding seen in cells or lysates may run through a third protein. Some binding calls cover weakened binding; strength is not graded here. For some of these results: Sequences can lack the tags named with a protein.

The target in one experiment is T1, Tim-4^ECR-FLAG (UniProt Q6U7R4).
T1 sequence: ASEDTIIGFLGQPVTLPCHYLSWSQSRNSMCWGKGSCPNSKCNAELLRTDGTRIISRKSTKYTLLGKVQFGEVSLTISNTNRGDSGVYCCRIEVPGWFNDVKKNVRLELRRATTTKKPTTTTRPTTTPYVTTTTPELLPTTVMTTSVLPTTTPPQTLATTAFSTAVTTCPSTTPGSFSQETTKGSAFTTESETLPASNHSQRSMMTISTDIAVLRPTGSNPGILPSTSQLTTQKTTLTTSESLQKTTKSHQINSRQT
In words: co-IP; 293T cells co-transfected, lysed 2 d later; anti-FLAG agarose beads, or anti-Tim-4 tail or anti-GFP antibody with protein A/G beads, 4 °C for 2 h; immunoblot; also after treatment of the cells with LDC1267 (Figure S1). On the technique in general: Immunoblotting shows a protein as a band on a membrane.

The target in experiment [1] is T2, Mertk-FLAG (mouse) (UniProt Q60805).
T2 sequence: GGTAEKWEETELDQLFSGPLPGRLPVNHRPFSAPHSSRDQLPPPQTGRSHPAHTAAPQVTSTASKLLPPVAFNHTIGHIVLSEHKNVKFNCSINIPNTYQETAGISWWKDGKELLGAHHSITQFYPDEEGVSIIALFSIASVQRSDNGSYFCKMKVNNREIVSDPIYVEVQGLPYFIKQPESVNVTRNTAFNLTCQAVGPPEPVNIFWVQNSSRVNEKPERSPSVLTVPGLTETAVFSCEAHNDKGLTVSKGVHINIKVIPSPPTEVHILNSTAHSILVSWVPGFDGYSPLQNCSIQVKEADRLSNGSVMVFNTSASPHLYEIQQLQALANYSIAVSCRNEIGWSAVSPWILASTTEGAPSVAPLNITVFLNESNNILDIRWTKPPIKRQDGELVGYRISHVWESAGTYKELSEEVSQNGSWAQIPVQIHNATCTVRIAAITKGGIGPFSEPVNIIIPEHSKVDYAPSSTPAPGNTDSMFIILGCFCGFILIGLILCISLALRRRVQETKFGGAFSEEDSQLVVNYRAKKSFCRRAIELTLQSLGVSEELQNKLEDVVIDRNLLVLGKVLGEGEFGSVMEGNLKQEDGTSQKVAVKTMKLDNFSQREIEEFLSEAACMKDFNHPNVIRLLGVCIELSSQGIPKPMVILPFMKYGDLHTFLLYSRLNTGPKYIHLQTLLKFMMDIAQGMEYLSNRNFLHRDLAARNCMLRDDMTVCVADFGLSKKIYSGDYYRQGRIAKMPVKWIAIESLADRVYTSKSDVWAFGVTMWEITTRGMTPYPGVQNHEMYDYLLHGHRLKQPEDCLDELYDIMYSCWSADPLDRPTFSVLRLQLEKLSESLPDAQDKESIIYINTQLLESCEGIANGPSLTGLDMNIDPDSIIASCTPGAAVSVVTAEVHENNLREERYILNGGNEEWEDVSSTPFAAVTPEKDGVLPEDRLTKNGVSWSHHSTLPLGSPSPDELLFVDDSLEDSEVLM
In words: proximity ligation; cells expressing Tim-4 and Mertk in the presence of GST-Mertk^FnIII, against control cells (Figure S5).

Experiment [2] has as its target T2, Mertk-FLAG (mouse). In words: co-IP; lysates of transfected 293T cells with anti-FLAG agarose beads in the presence of purified GST-Mertk^FnIII or GST; the pair in the lysate.
Experiment [3] has as its target T2, Mertk-FLAG (mouse). In words: proximity ligation; LR73 cells transfected, fixed, permeabilised; anti-FLAG and anti-Tim-4 tail antibodies, Duolink probes; confocal microscopy.
Experiment [4] addresses T2, Mertk-FLAG (mouse). Briefly: co-IP; 293T cells co-transfected, lysed 2 d later; anti-FLAG agarose beads, or anti-Tim-4 tail or anti-GFP antibody with protein A/G beads, 4 °C for 2 h; immunoblot; also after treatment of the cells with LDC1267 (Figure S1).
Experiment [5] addresses T3, HA-Tim-4 (UniProt Q6U7R4).
T3 sequence: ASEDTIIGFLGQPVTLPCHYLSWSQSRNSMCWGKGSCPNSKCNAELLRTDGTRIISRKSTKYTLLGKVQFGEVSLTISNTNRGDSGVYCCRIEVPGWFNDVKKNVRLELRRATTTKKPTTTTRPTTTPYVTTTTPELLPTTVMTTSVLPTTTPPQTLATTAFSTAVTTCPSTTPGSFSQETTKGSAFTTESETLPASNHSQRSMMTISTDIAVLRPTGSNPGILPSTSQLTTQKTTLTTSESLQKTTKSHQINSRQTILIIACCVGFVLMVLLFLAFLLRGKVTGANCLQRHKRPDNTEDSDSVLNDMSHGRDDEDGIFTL
Briefly: co-IP; lysates of transfected 293T cells with anti-FLAG agarose beads in the presence of purified GST-Mertk^FnIII or GST; the purified competitor against Tim-4 in the lysate; only the binder purified.

The target of experiment [6] is T3, HA-Tim-4. In words: co-IP; 293T cells co-transfected, lysed 2 d later; anti-FLAG agarose beads, or anti-Tim-4 tail or anti-GFP antibody with protein A/G beads, 4 °C for 2 h; immunoblot; also after treatment of the cells with LDC1267 (Figure S1).
For experiment [7], the target named is T4, Tim-4 (endogenous, peritoneal macrophages) (mouse (endogenous in peritoneal macrophages)) (UniProt Q6U7R4).
T4 sequence: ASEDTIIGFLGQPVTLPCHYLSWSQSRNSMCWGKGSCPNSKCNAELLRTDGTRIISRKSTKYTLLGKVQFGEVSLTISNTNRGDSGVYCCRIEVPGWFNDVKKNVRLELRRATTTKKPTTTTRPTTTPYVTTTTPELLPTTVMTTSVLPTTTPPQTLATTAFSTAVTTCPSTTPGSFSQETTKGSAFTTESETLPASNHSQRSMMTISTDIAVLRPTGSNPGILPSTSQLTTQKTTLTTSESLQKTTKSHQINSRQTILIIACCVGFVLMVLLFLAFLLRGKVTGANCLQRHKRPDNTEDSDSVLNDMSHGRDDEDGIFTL
In words: co-IP; lysates of peritoneal macrophages, anti-Tim-4 tail antibody or control antibody with protein A/G agarose beads; Mertk detected by immunoblot.

B1: Mertk^ECR (domain or fragment, UniProt Q60805 19-497)
chain: GGTAEKWEETELDQLFSGPLPGRLPVNHRPFSAPHSSRDQLPPPQTGRSHPAHTAAPQVTSTASKLLPPVAFNHTIGHIVLSEHKNVKFNCSINIPNTYQETAGISWWKDGKELLGAHHSITQFYPDEEGVSIIALFSIASVQRSDNGSYFCKMKVNNREIVSDPIYVEVQGLPYFIKQPESVNVTRNTAFNLTCQAVGPPEPVNIFWVQNSSRVNEKPERSPSVLTVPGLTETAVFSCEAHNDKGLTVSKGVHINIKVIPSPPTEVHILNSTAHSILVSWVPGFDGYSPLQNCSIQVKEADRLSNGSVMVFNTSASPHLYEIQQLQALANYSIAVSCRNEIGWSAVSPWILASTTEGAPSVAPLNITVFLNESNNILDIRWTKPPIKRQDGELVGYRISHVWESAGTYKELSEEVSQNGSWAQIPVQIHNATCTVRIAAITKGGIGPFSEPVNIIIPEHSKVDYAPSSTPAPGNTDSM
Take B1: the binding entry with Tim-4^ECR-FLAG is “binds”.

B2: Mertk^Ig (domain or fragment, UniProt Q60805 19-277)
chain: GGTAEKWEETELDQLFSGPLPGRLPVNHRPFSAPHSSRDQLPPPQTGRSHPAHTAAPQVTSTASKLLPPVAFNHTIGHIVLSEHKNVKFNCSINIPNTYQETAGISWWKDGKELLGAHHSITQFYPDEEGVSIIALFSIASVQRSDNGSYFCKMKVNNREIVSDPIYVEVQGLPYFIKQPESVNVTRNTAFNLTCQAVGPPEPVNIFWVQNSSRVNEKPERSPSVLTVPGLTETAVFSCEAHNDKGLTVSKGVHINIKV
Take B2: the binding result with Tim-4^ECR-FLAG is given as “no binding”.

B3: HA-Tim-4 (receptor, UniProt Q6U7R4 23-343)
chain: ASEDTIIGFLGQPVTLPCHYLSWSQSRNSMCWGKGSCPNSKCNAELLRTDGTRIISRKSTKYTLLGKVQFGEVSLTISNTNRGDSGVYCCRIEVPGWFNDVKKNVRLELRRATTTKKPTTTTRPTTTPYVTTTTPELLPTTVMTTSVLPTTTPPQTLATTAFSTAVTTCPSTTPGSFSQETTKGSAFTTESETLPASNHSQRSMMTISTDIAVLRPTGSNPGILPSTSQLTTQKTTLTTSESLQKTTKSHQINSRQTILIIACCVGFVLMVLLFLAFLLRGKVTGANCLQRHKRPDNTEDSDSVLNDMSHGRDDEDGIFTL
Consider B3, for which the binding result with Mertk-FLAG (mouse) [1], with Mertk-FLAG (mouse) [2], in the experiment with Mertk-FLAG (mouse) [3] and with Mertk-FLAG (mouse) [4] was “binds” in each case.

B4: GST-Mertk^FnIII (domain or fragment, UniProt Q60805 278-497)
chain: IPSPPTEVHILNSTAHSILVSWVPGFDGYSPLQNCSIQVKEADRLSNGSVMVFNTSASPHLYEIQQLQALANYSIAVSCRNEIGWSAVSPWILASTTEGAPSVAPLNITVFLNESNNILDIRWTKPPIKRQDGELVGYRISHVWESAGTYKELSEEVSQNGSWAQIPVQIHNATCTVRIAAITKGGIGPFSEPVNIIIPEHSKVDYAPSSTPAPGNTDSM
As for B4, in the experiment with HA-Tim-4 [5], the binding entry is reported as “binds”.

B5: Mertk^FnIII (domain or fragment, UniProt Q60805 278-497)
chain: IPSPPTEVHILNSTAHSILVSWVPGFDGYSPLQNCSIQVKEADRLSNGSVMVFNTSASPHLYEIQQLQALANYSIAVSCRNEIGWSAVSPWILASTTEGAPSVAPLNITVFLNESNNILDIRWTKPPIKRQDGELVGYRISHVWESAGTYKELSEEVSQNGSWAQIPVQIHNATCTVRIAAITKGGIGPFSEPVNIIIPEHSKVDYAPSSTPAPGNTDSM
Regarding B5, the binding entry with Tim-4^ECR-FLAG was “binds”.

B6: Mertk-FLAG (receptor, UniProt Q60805 19-994)
chain: GGTAEKWEETELDQLFSGPLPGRLPVNHRPFSAPHSSRDQLPPPQTGRSHPAHTAAPQVTSTASKLLPPVAFNHTIGHIVLSEHKNVKFNCSINIPNTYQETAGISWWKDGKELLGAHHSITQFYPDEEGVSIIALFSIASVQRSDNGSYFCKMKVNNREIVSDPIYVEVQGLPYFIKQPESVNVTRNTAFNLTCQAVGPPEPVNIFWVQNSSRVNEKPERSPSVLTVPGLTETAVFSCEAHNDKGLTVSKGVHINIKVIPSPPTEVHILNSTAHSILVSWVPGFDGYSPLQNCSIQVKEADRLSNGSVMVFNTSASPHLYEIQQLQALANYSIAVSCRNEIGWSAVSPWILASTTEGAPSVAPLNITVFLNESNNILDIRWTKPPIKRQDGELVGYRISHVWESAGTYKELSEEVSQNGSWAQIPVQIHNATCTVRIAAITKGGIGPFSEPVNIIIPEHSKVDYAPSSTPAPGNTDSMFIILGCFCGFILIGLILCISLALRRRVQETKFGGAFSEEDSQLVVNYRAKKSFCRRAIELTLQSLGVSEELQNKLEDVVIDRNLLVLGKVLGEGEFGSVMEGNLKQEDGTSQKVAVKTMKLDNFSQREIEEFLSEAACMKDFNHPNVIRLLGVCIELSSQGIPKPMVILPFMKYGDLHTFLLYSRLNTGPKYIHLQTLLKFMMDIAQGMEYLSNRNFLHRDLAARNCMLRDDMTVCVADFGLSKKIYSGDYYRQGRIAKMPVKWIAIESLADRVYTSKSDVWAFGVTMWEITTRGMTPYPGVQNHEMYDYLLHGHRLKQPEDCLDELYDIMYSCWSADPLDRPTFSVLRLQLEKLSESLPDAQDKESIIYINTQLLESCEGIANGPSLTGLDMNIDPDSIIASCTPGAAVSVVTAEVHENNLREERYILNGGNEEWEDVSSTPFAAVTPEKDGVLPEDRLTKNGVSWSHHSTLPLGSPSPDELLFVDDSLEDSEVLM
For the molecule B6, in the experiment with HA-Tim-4 [6], the binding entry is recorded as “binds”.

B7: Mertk (endogenous, peritoneal macrophages) (receptor, UniProt Q60805 19-994)
chain: GGTAEKWEETELDQLFSGPLPGRLPVNHRPFSAPHSSRDQLPPPQTGRSHPAHTAAPQVTSTASKLLPPVAFNHTIGHIVLSEHKNVKFNCSINIPNTYQETAGISWWKDGKELLGAHHSITQFYPDEEGVSIIALFSIASVQRSDNGSYFCKMKVNNREIVSDPIYVEVQGLPYFIKQPESVNVTRNTAFNLTCQAVGPPEPVNIFWVQNSSRVNEKPERSPSVLTVPGLTETAVFSCEAHNDKGLTVSKGVHINIKVIPSPPTEVHILNSTAHSILVSWVPGFDGYSPLQNCSIQVKEADRLSNGSVMVFNTSASPHLYEIQQLQALANYSIAVSCRNEIGWSAVSPWILASTTEGAPSVAPLNITVFLNESNNILDIRWTKPPIKRQDGELVGYRISHVWESAGTYKELSEEVSQNGSWAQIPVQIHNATCTVRIAAITKGGIGPFSEPVNIIIPEHSKVDYAPSSTPAPGNTDSMFIILGCFCGFILIGLILCISLALRRRVQETKFGGAFSEEDSQLVVNYRAKKSFCRRAIELTLQSLGVSEELQNKLEDVVIDRNLLVLGKVLGEGEFGSVMEGNLKQEDGTSQKVAVKTMKLDNFSQREIEEFLSEAACMKDFNHPNVIRLLGVCIELSSQGIPKPMVILPFMKYGDLHTFLLYSRLNTGPKYIHLQTLLKFMMDIAQGMEYLSNRNFLHRDLAARNCMLRDDMTVCVADFGLSKKIYSGDYYRQGRIAKMPVKWIAIESLADRVYTSKSDVWAFGVTMWEITTRGMTPYPGVQNHEMYDYLLHGHRLKQPEDCLDELYDIMYSCWSADPLDRPTFSVLRLQLEKLSESLPDAQDKESIIYINTQLLESCEGIANGPSLTGLDMNIDPDSIIASCTPGAAVSVVTAEVHENNLREERYILNGGNEEWEDVSSTPFAAVTPEKDGVLPEDRLTKNGVSWSHHSTLPLGSPSPDELLFVDDSLEDSEVLM
Take B7: the binding entry in experiment [7] is listed as “binds”.

The values are drawn from PMC7408610.
